Measured values taken from US20220098307A1 (WUHAN YZY BIOPHARMA, published 2022).

B1: PDL1-M1-WT (bispecific antibody)
chain: QVQLVESGGGVVQPGRSLRLSCAASGFTFSTYAMNWVRQAPGKGLEWVARIRSKYNNYATYYADSVKDRFTISRDDSKNTLYLQMNSLRAEDTAVYYCARHGNFGNSYVSWFAYWGQGTLVTVSSGGGGSGGGGSGGGGSQTVVTQEPSLTVSPGGTVTLTCRSSTGAVTTSNYANWVQQKPGQAPRGLIGGTNKRAPGVPARFSGSLLGGKAALTLSGVQPEDEAEYYCALWYSNLWVFGGGTKVEIKRGRGS[sequence of human IgG1 Fc with changes omitted]
heavy: not shown
light: not shown
notes: structure 1; PD-L1 x CD3; CH2 WT
B2: PDL1-M1-NQ-1 (bispecific antibody)
chain: QVQLVESGGGVVQPGRSLRLSCAASGFTFSTYAMNWVRQAPGKGLEWVARIRSKYNNYATYYADSVKDRFTISRDDSKNTLYLQMNSLRAEDTAVYYCARHGNFGNSYVSWFAYWGQGTLVTVSSGGGGSGGGGSGGGGSQTVVTQEPSLTVSPGGTVTLTCRSSTGAVTTSNYANWVQQKPGQAPRGLIGGTNKRAPGVPARFSGSLLGGKAALTLSGVQPEDEAEYYCALWYSNLWVFGGGTKVEIKRGRGS[sequence of human IgG1 Fc with N297Q Y349C T366S L368A Y407V (EU numbers) omitted]
heavy: not shown
light: not shown
notes: structure 1; PD-L1 x CD3; CH2 N297Q

Tests used:
[1] = target: T1, Monkey CD3 (monkey); experiment: flow cytometry, monkey T cells
T1 construct: whole, on cells; also called CD3 of monkey CD3 positive T cells

[2] = target: T2, Human CD3ε (human, UniProt P07766 23-126); experiment: flow cytometry, human T cells
T2 construct: CD3 on T cells isolated from human whole blood
Excerpt: 1) Cell preparation: T cells isolated from CD3-positive human whole blood were used for a CD3 end affinity detection of multifunctional antibody molecule; positive tumor cells of corresponding antigen were used for detecting affinity of tumor antigen; for example, CD38-positive MM. 1S cells (purchased from the Cell Resource Center of Shanghai Institutes for Biological Sciences, Chinese Academy of Sciences) or RPMI 8226 cells (purchased from the Cell Resource Center of Shanghai Institutes for Biological Sciences, Chinese Academy of Sciences) were used for CD38 antigen detection, and PD-L1 positive H358 cells (purchased from the Cell Resource Center of Shanghai Institutes for Biological Sciences, Chinese Academy of Sciences) were used for PD-L1 antigen detection, and so on. […]
5) Data analysis: the data was analyzed by a flow analysis software FlowJo 7.6 thereby obtaining an average fluorescence intensity of the specific antibody concentration, plotted by a Graphpad Prism 5 with the antibody concentration (nM) as an abscissa and the average fluorescence intensity as an ordinate; the EC50 value was calculated by the method of One site—Specific binding, and the EC50 value indicated the cell affinity of the antibody to the corresponding target antigen.

T2 sequence (P07766 23-126): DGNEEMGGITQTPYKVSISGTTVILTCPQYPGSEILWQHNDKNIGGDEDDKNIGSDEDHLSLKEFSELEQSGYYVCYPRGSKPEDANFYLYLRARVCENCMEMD

Row | Binder | EC50 [1] [nM] | EC50 [2] [nM]
1 | B1 | 161 | 135
2 | B2 | 168 | 145
